The shares of active, inactive and inconclusive entries below differ from those in the screen. For some of these results: Where the call is inconclusive, the potency comes from a doubtful curve fit. Active and inactive are the calls of the source. Unless noted, the call rests on the fitted dose curve; in most records, active means well fitted curve in the direction sought with a large enough effect in the repeat runs; inconclusive means weak or mixed curves; inactive means no such curve, though single readings can be large; an effect the other way counts as inactive or inconclusive.
Assays:
[1] = qHTS assay for small molecule agonists of the p53 signaling pathway (AID 651631; calls by dose curve; further: nearly all actives have a fitted effect of over 15% in size; further: potency means the concentration at half of the fitted maximal effect; on activation: on the % scale 0 is the no-effect control and ±100 the full control effect); conditions: HCT-116 p53RE-bla reporter, beta-lactamase FRET ratio, 16 h; activation: at 73.3 µM (top of the series) unless noted
Summary of the method: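 HCT-116 cells carrying a beta-lactamase reporter under p53 response elements were dosed with compound for 16 h at 37 °C. LiveBLAzer B/G FRET substrate was then added for 2 h at room temperature, and fluorescence intensity was read to detect pathway agonism.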

[2] = qHTS assay for small molecule disruptors of the mitochondrial membrane potential (AID 720635); conditions: HepG2 mitochondrial membrane potential, Mito-MPS dye ratio; ratio activity, negative = MMP loss: at 83.2 µM (top of the series) unless noted; further: potency means the concentration at half of the fitted maximal effect
Summary of the method: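 Mitochondrial membrane potential tracked with Mito-MPS dye, red aggregates (ex 540/em 590 nm) against green monomers (ex 490/em 535 nm). Compound treatment 1 hr at 37C, dye 30 min in HepG2.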

[3] = qHTS assay for identifying genotoxic compounds that show differential cytotoxicity against isogenic chicken DT40 cell lines with known DNA damage response pathways - wild type cell line (AID 743012); conditions: DT40 wild type chicken cells viability, CellTiter-Glo, 40 h; activity change, negative = cytotoxicity: at 68.4 µM (top of the series) unless noted; further: potency means the concentration at half of the fitted maximal effect; nearly all actives have a fitted effect of over 60% in size
Summary of the method: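 Wild-type DT40 cells (300/well) exposed to compounds for 40 hours at 37 C/5% CO2. Viability read by CellTiter-Glo luminescence after 30 min at room temperature.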

[4] = qHTS assay for identifying genotoxic compounds that show differential cytotoxicity against isogenic chicken DT40 cell lines with known DNA damage response pathways - Rev3 mutant cell line (AID 743014); conditions: chicken DT40 Rev3-/- viability, CellTiter-Glo, 40 h; activity, negative = cytotoxicity: at 68.4 µM (top of the series) unless noted; further: nearly all actives have a fitted effect of over 55% in size; further: potency means the concentration at half of the fitted maximal effect
[5] = qHTS assay for identifying genotoxic compounds that show differential cytotoxicity against isogenic chicken DT40 cell lines with known DNA damage response pathways - Rad54/Ku70 mutant cell line (AID 743015); conditions: DT40 Rad54/Ku70 mutant viability, CellTiter-Glo, 40 h; activity change, negative = cytotoxicity: at 66.8 µM (top of the series) unless noted; further: nearly all actives have a fitted effect of over 60% in size; further: potency means the concentration at half of the fitted maximal effect
[6] = qHTS assay to identify small molecule antagonists of the androgen receptor (AR) signaling pathway - cell viability counter screen (AID 743033; further: on the % scale 0 is the no-effect control and ±100 the full control effect; nearly all actives have a fitted effect of over 45% in size); conditions: AR-bla HEK293 viability, CellTiter-Glo luminescence, 16 h; activity change, negative = cytotoxicity: at 58.5 µM (top of the series) unless noted
[7] = qHTS assay to identify small molecule antagonists of the estrogen receptor alpha (ER-alpha) signaling pathway - cell viability counter screen (AID 743074; calls by dose curve;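 further: HEK293 cells carrying ER-alpha-UAS-bla reporter stimulated with 17beta-estradiol; potency means the concentration at half of the fitted maximal effect; nearly all actives have a fitted effect of over 45% in size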)
[8] = qHTS assay to identify small molecule antagonists of the estrogen receptor alpha (ER-alpha) signaling pathway using the BG1 cell line (AID 743080; calls by dose curve;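 further: BG1 cells stimulated with 17beta-estradiol alongside compound; nearly all actives have a fitted effect of over 25% in size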; further: potency means the concentration at half of the fitted maximal effect); conditions: BG1Luc4E2 ERE-luciferase antagonist mode, luminescence; activity change, negative = inhibition: at 70.3 µM (top of the series) unless noted
Summary of the method: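 BG1-Luc-4E2 cells (endogenous full-length ER-alpha, stable 4×ERE-luciferase) were starved 5 days in phenol-red-free medium with 10% charcoal-stripped FBS, plated 24 h, then given compound plus 17beta-estradiol for 21.5 h at 37 C; ONE-Glo luminescence read after 30 min.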

[9] = qHTS assay to identify small molecule antagonists of the estrogen receptor alpha (ER-alpha) signaling pathway using the BG1 cell line - cell viability counter screen (AID 743081); conditions: BG1Luc4E2 viability, CellTiter-Fluor, 22 h; activity change, negative = cytotoxicity: at 70.3 µM (top of the series) unless noted;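 further: compound given together with 17beta-estradiol as the ER stimulus; potency means the concentration at half of the fitted maximal effect; nearly all actives have a fitted effect of over 45% in size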
[10] = molecular target: Glucocorticoid receptor (Homo sapiens) (UniProt P04150); assay: qHTS assay to identify small molecule antagonists of the glucocorticoid receptor (GR) signaling pathway (AID 720692; active means well fitted inhibition curve with a large enough effect in the signal ratio in the repeat runs, not every such curve was filed as active; inconclusive means weak or mixed curves, or effect the other way; inactive means no such curve, though single readings can be large or run the other way; the % refers to the signal ratio; further: potency means the concentration at half of the fitted maximal effect); conditions: GR-bla HeLa, beta-lactamase FRET ratio, dexamethasone-stimulated, 18 h; activity change, negative = inhibition: at 58.5 µM (top of the series) unless noted
Summary of the method: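 GR-bla HeLa cells carrying a GRE-driven beta-lactamase reporter received compound after 4 h plating, then dexamethasone (5 nM final). After 18 h at 37C, the FRET substrate was loaded for 2 h at room temperature and fluorescence read.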

[11] = qHTS assay to identify small molecule antagonists of the thyroid receptor (TR) signaling pathway - cell viability counter screen (AID 743064); conditions: GH3.TRE-Luc viability, CellTiter-Fluor, 24 h; activity change, negative = cytotoxic: at 70.3 µM (top of the series) unless noted; further: nearly all actives have a fitted effect of over 50% in size; further: potency means the concentration at half of the fitted maximal effect
Summary of the method: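 GH3.TRE-Luc rat pituitary cells dosed after 4 hr plating, co-stimulated with T3 at 1 nM final, incubated 23.5 h at 37 C. Viability measured in the same wells by CellTiter-Fluor fluorescence after 30 min further at 37 C.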

[12] = system: thyroid hormone receptor (rat, GH3 cells); assay: qHTS assay to identify small molecule agonists of the thyroid receptor (TR) signaling pathway (AID 743066; calls by dose curve; further: on the % scale 0 is the no-effect control and ±100 the full control effect); conditions: GH3.TRE-Luc cells, TR agonist luciferase, 24 h; activation: at 83.9 µM (top of the series) unless noted
[13] = molecular target: Estrogen receptor (Homo sapiens) (UniProt P03372); assay: qHTS assay to identify small molecule agonists of the estrogen receptor alpha (ER-alpha) signaling pathway using the BG1 cell line (AID 743079); conditions: BG1Luc4E2 cells, ERE-luciferase agonist, 22 h; activation: at 70.3 µM (top of the series) unless noted; further: nearly all actives have a fitted effect of over 20% in size; further: potency means the concentration at half of the fitted maximal effect
[14] = qHTS assay to identify small molecule that activate the aryl hydrocarbon receptor (AhR) signaling pathway - cell viability counter screen (AID 743086); further: potency means the concentration at half of the fitted maximal effect; nearly all actives have a fitted effect of over 45% in size
Summary of the method: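 Cytotoxicity counter screen: CellTiter-Fluor signal (30 min, 37 C) in 4000 HepG2 cells/well carrying the DRE-luciferase reporter, following 24 h compound exposure at 37 C.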

[15] = qHTS assay to identify small molecule antagonists of the thyroid receptor (TR) signaling pathway (AID 743065); further: potency means the concentration at half of the fitted maximal effect; nearly all actives have a fitted effect of over 55% in size
Summary of the method: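 Antagonism measured as loss of luciferase signal in GH3 cells stably carrying a TRE-luciferase reporter, co-treated with compound and T3 (1 nM final) for 23.5 h at 37 C. Viability was read in the same well by CellTiter-Fluor.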

[16] = qHTS assay to identify aromatase inhibitors - cell viability counter screen (AID 743084); conditions: MCF-7 aro ERE viability, CellTiter-Fluor, 24 h; activity change, negative = cytotoxicity: at 70.3 µM (top of the series) unless noted;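 further: cells stimulated with testosterone during compound exposure; on the % scale 0 is the no-effect control and ±100 the full control effect; nearly all actives have a fitted effect of over 55% in size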
[17] = molecular target: Aryl hydrocarbon receptor (Homo sapiens) (UniProt P35869); assay: qHTS assay to identify small molecule that activate the aryl hydrocarbon receptor (AhR) signaling pathway (AID 743085); further: nearly all actives have a fitted effect of over 15% in size; further: potency means the concentration at half of the fitted maximal effect
Summary of the method: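 HepG2 cells stably carrying a 20-DRE firefly luciferase reporter (HG2L7.5c1) treated with compound for 24 hr at 37C. Luciferase read by ONE-Glo luminescence, with CellTiter-Fluor viability read first.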

[18] = molecular target: Peroxisome proliferator-activated receptor gamma (Homo sapiens) (UniProt P37231); assay: qHTS assay to identify small molecule agonists of the peroxisome proliferator-activated receptor gamma (PPARg) signaling pathway (AID 743094; active means well fitted activation curve with a large enough effect in the signal ratio in the repeat runs, not every such curve was filed as active; inconclusive means weak or mixed curves, or effect the other way; inactive means no such curve, though single readings can be large or run the other way; the % refers to the signal ratio; further: on the % scale 0 is the no-effect control and ±100 the full control effect); conditions: HEK293H PPARg-UAS-bla, beta-lactamase FRET ratio, 17 h; activation: at 57 µM (top of the series) unless noted
Summary of the method: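 GeneBLAzer PPARg UAS-bla HEK293H cells were plated, rested 5 h, then exposed to compounds for 17 h at 37C. Beta-lactamase activity was read by LiveBLAzer B/G FRET substrate fluorescence after 1 h at room temperature.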

[19] = molecular target: Androgen receptor (Homo sapiens) (UniProt P10275); assay: qHTS assay to identify small molecule antagonists of the androgen receptor (AR) signaling pathway (AID 743035; active means well fitted inhibition curve with a large enough effect in the signal ratio in the repeat runs, not every such curve was filed as active; inconclusive means weak or mixed curves, or effect the other way; inactive means no such curve, though single readings can be large or run the other way; the % refers to the signal ratio; further: on the % scale 0 is the no-effect control and ±100 the full control effect); conditions: HEK293 AR-UAS-bla, R1881-stimulated, beta-lactamase FRET, 16 h; activity change, negative = inhibition: at 58.5 µM (top of the series) unless noted
Summary of the method: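 HEK293 cells stably carrying UAS-beta-lactamase reporter, 2,000/well, given compounds plus R1881 agonist and incubated 16 h at 37C. LiveBLAzer B/G FRET substrate then added for 2 h at room temperature before fluorescence reading.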
Tags describe the fitted curve by direction and shape or compound fluorescence and quenching.

Sequence of UniProt P35869 (P35869 whole entry, looked up): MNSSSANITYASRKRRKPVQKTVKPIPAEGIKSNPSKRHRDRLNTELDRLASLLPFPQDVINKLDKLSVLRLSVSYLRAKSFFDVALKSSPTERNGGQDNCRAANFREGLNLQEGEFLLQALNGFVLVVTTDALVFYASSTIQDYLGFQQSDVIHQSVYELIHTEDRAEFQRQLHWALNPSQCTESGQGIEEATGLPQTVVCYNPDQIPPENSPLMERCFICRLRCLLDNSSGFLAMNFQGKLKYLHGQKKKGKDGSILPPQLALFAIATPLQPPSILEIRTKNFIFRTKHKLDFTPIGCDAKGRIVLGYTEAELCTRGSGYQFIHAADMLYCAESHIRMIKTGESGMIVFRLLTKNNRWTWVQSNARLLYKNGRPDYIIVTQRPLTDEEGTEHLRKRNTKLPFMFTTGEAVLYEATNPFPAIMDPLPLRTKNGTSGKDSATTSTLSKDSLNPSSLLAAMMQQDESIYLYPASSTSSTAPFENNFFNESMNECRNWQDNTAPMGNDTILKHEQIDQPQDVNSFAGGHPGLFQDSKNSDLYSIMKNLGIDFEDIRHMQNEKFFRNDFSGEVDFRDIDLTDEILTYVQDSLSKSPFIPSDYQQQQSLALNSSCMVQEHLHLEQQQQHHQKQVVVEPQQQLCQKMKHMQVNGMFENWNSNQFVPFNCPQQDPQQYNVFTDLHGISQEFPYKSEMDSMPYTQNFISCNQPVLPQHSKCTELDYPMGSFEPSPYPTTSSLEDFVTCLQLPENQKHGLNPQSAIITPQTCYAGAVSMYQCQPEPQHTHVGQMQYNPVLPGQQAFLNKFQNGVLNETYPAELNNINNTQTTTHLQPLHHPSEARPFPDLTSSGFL
Sequence of UniProt P04150 (P04150 whole entry, looked up): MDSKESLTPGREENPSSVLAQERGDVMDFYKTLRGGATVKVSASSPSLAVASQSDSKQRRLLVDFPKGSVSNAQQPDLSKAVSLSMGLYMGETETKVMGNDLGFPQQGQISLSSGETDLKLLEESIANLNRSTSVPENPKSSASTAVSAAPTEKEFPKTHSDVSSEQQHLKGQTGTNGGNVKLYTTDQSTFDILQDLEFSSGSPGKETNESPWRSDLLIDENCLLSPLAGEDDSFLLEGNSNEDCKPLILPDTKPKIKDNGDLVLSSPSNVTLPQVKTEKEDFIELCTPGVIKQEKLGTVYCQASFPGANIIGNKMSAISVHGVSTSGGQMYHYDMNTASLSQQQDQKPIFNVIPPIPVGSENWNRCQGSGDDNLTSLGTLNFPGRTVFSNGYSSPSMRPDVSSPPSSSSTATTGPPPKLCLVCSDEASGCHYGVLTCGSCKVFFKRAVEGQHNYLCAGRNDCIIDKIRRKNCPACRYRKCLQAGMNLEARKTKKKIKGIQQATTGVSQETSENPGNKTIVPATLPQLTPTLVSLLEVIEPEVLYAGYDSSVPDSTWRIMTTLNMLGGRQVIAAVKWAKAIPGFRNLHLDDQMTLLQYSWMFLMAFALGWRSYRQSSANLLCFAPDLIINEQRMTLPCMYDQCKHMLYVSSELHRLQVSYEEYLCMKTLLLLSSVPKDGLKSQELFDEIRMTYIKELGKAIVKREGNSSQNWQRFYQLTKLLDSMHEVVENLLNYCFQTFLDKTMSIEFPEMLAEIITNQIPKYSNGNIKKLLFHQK
Sequence of UniProt P03372 (P03372 whole entry, looked up): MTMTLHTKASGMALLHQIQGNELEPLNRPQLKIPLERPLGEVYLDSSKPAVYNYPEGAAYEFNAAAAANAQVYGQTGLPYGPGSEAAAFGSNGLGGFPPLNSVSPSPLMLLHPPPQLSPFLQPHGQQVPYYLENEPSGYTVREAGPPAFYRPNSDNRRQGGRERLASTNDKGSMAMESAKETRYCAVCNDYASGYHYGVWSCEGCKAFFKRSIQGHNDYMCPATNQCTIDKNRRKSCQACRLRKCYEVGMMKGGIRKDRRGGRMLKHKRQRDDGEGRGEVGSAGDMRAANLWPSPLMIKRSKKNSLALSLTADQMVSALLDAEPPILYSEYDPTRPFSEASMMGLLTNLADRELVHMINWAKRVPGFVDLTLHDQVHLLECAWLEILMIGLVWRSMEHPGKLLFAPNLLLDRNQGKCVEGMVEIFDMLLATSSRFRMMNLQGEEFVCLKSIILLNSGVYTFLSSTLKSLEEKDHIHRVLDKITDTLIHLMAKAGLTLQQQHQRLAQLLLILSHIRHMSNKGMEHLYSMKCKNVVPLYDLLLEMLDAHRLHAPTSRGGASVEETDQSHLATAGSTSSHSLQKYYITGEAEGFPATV
Sequence of UniProt P10275 (P10275 whole entry, looked up): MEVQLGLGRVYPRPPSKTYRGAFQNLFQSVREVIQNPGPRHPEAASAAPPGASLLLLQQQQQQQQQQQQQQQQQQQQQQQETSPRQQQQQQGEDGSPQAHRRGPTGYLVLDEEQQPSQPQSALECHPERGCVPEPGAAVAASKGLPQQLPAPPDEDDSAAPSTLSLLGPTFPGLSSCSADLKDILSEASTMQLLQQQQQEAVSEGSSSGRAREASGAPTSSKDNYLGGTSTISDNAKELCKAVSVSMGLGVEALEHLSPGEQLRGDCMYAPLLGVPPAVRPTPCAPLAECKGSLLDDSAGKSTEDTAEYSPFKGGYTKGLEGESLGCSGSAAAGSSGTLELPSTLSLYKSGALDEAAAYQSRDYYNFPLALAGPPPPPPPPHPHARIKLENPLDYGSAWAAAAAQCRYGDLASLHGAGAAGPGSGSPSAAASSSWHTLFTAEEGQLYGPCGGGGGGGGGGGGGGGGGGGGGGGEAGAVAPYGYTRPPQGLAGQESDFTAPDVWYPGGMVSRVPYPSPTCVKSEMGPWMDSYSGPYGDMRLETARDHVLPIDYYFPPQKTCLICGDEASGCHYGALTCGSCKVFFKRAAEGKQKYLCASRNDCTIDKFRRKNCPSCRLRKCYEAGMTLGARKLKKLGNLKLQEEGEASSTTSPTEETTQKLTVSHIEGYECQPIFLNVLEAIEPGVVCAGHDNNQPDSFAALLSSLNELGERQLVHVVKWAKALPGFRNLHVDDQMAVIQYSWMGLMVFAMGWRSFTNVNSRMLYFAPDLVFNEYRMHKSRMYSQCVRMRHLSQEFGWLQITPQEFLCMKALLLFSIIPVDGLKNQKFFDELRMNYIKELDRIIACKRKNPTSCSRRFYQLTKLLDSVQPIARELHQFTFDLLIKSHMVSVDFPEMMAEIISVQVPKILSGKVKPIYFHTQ
Sequence of UniProt P37231 (P37231 whole entry, looked up): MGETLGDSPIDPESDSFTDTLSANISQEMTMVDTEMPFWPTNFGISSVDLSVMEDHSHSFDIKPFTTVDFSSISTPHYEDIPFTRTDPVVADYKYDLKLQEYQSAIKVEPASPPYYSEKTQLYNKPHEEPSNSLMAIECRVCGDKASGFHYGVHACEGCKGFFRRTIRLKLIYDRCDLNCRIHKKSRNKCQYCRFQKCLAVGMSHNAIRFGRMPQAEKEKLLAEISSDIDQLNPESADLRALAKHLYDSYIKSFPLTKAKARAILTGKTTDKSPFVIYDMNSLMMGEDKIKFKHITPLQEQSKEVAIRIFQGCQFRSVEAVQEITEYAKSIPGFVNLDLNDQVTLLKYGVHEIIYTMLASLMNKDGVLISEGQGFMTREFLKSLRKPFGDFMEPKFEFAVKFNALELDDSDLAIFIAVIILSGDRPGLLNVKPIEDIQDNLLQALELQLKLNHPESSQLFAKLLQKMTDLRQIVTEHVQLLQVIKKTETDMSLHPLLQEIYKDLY

C=C[C@]1(C)C[C@@H](OC(=O)CO)[C@]2(C)[C@H](C)CC[C@]3(CCC(=O)[C@H]32)[C@@H](C)[C@@H]1O
inconclusive: Potency [3] 29.8 µM [cytotoxic, single point] | Potency [4] 33.5 µM [cytotoxic] | Potency [5] 33.5 µM [cytotoxic, single point] | Potency [7] 26.8 µM [rising, single point] | Potency [9] 13.3 µM [cytotoxic, single point]
inactive: Potency [1] | Potency [2] | Potency [6] | Potency [8]

O=C(OC1C[C@@H]2CC3C[C@H](C1)N2CC3=O)c1c[nH]c2ccccc12 (stereo not given in full)
inactive: Potency [10] | Potency [13]
inconclusive: Potency [1] 16.8 µM [rising, partial curve, poor fit] | Potency [2] 9.44 µM [activator, partial curve] | Potency [4] 29.8 µM [cytotoxic, partial curve] | Potency [5] 33.5 µM [cytotoxic, single point] | Potency [11] 33.5 µM [cytotoxic, single point] | activation [12] -7.98% [phenotype inactive] | Potency [8] 29.8 µM [falling, single point] | Potency [9] 33.5 µM [cytotoxic] | Potency [14] 33.5 µM

CN1CCC(OC(=O)C(Oc2ccc(Cl)cc2)Oc2ccc(Cl)cc2)CC1
inconclusive: Potency [1] 0.298 µM [activator, single point] | Potency [2] 9.44 µM [activator, partial curve] | activity change, negative = inhibition [10] 2.54% | Potency [11] 18.8 µM [cytotoxic, partial curve, poor fit] | Potency [15] 16.8 µM [inhibitor, partial curve]

CC(C)NCC(O)COc1ccccc1-n1cccc1 (stereo not given)
inconclusive: activation [1] 8.51% | ratio activity, negative = MMP loss [2] -13.9% | activity change, negative = inhibition [10] 12.5% | Potency [3] 10.6 µM [cytotoxic, partial curve] | Potency [11] 10.6 µM [cytotoxic, partial curve, poor fit]

CC1=C(/C=C/C(C)=C/C=C/C(C)=C/C=C/C=C(C)/C=C/C=C(C)/C=C/C2=C(C)C(=O)CCC2(C)C)C(C)(C)CCC1=O
inactive: Potency [4] | Potency [16]
inconclusive: Potency [1] 1.19 µM [activator, single point] | Potency [2] 33.5 µM [activator, single point] | activity change, negative = inhibition [10] 9.89% | activity change, negative = inhibition [8] -21.4% | Potency [9] 33.5 µM [cytotoxic, partial curve, poor fit]
active: Potency [13] 5.31 µM

CCC[C@@]1(CCc2ccccc2)CC(O)=C([C@H](CC)c2cccc(NS(=O)(=O)c3ccc(C(F)(F)F)cn3)c2)C(=O)O1
inactive: Potency [11]
inconclusive: Potency [1] 33.5 µM [activator, single point] | Potency [10] 26.8 µM [inhibitor, single point] | Potency [15] 29.8 µM [inhibitor, single point] | Potency [17] 33.5 µM [activator, single point] | activation [18] -12.6%
active: Potency [2] 23.7 µM

Cc1c(O)cc2c(c1C)O[C@](C)(CCC[C@H](C)CCC[C@H](C)CCCC(C)C)CC2
inactive: Potency [2] | Potency [10]
inconclusive: Potency [1] 5.96 µM [falling, single point] | Potency [4] 21.1 µM [cytotoxic, partial curve, poor fit]

COC1=C(C(=O)O)N2C(=O)[C@@H](NC(=O)[C@H](N)C3=CCC=CC3)[C@H]2SC1
inconclusive: Potency [7] 30.1 µM [rising, single point]
inactive: Potency [1] | Potency [2] | Potency [10] | Potency [5] | Potency [8]

O=C(O)CC/C=C\CC[C@@H]1[C@@H](N2CCCCC2)[C@@H](O)C[C@@H]1OCc1ccc(-c2ccccc2)cc1
inconclusive: Potency [1] 11.9 µM [fluorescent, partial curve, poor fit] | Potency [2] 10.6 µM [activator, partial curve] | Potency [4] 18.8 µM [cytotoxic, partial curve] | Potency [5] 21.1 µM [cytotoxic, partial curve] | activity change, negative = inhibition [19] 35%
inactive: Potency [10] | Potency [17]

OC[C@H]1O[C@@H](n2cnc3c2NC=NC[C@H]3O)C[C@@H]1O
inconclusive: Potency [2] 33.5 µM [inhibitor, single point]
inactive: Potency [1] | Potency [10] | Potency [17]

CS(=O)(=O)c1ccc(C2=C(c3ccccc3)C(=O)OC2)cc1
inactive: Potency [1] | Potency [11]
inconclusive: Potency [2] 33.5 µM [activator, single point] | Potency [3] 33.5 µM [rising, partial curve, poor fit]
